Measurements as given in the supplement of paper PMC4967469.
A lower IC50 marks a more sensitive line; a limit (>, <) means that the fit lies beyond the doses tested. AUC, from the same fit, is the share of area under the viability curve across the 256-fold dose range; the more sensitive the line, the further below 1. For part of these data: Where the top dose is marked as inferred, it is not printed in the source and was worked back from the curve model. For part of these data: Where an entry number is given, a second screen of the drug exists; the two often differ.

Key:
Test in all cases: Viability of human cancer cell lines after 72 h of drug (GDSC screen)
EX-527 = compound: NC(=O)C1CCCc2c1[nH]c1ccc(Cl)cc21 [EX-527]; conditions: top dose 20 µM
Experimental: (§1)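 Human cancer cell lines in 384-well plates, medium with 10% serum, drug for 72 h over a 256-fold dose range (nine 2-fold or five 4-fold steps up to the top dose). Adherent lines were fixed and stained with the nucleic acid dye Syto60, suspension lines read with resazurin; signal relative to control wells, capped at 0 and 100%. One two-parameter sigmoid per drug and line, fitted in a mixed model over all curves with the slope shared within a line.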

AZD6244 = compound: Cn1cnc2c(F)c(Nc3ccc(Br)cc3Cl)c(C(=O)NOCCO)cc21 [AZD6244]; conditions: top dose 4 µM; screen: GDSC drug entry 1498; top dose inferred
Experimental: as §1

YM201636 = compound: Nc1ccc(C(=O)Nc2cccc(-c3nc(N4CCOCC4)c4oc5ncccc5c4n3)c2)cn1 [YM201636]; conditions: top dose 5.12 µM; top dose inferred
Experimental: as §1

AZ628 = compound: Cc1ccc(NC(=O)c2cccc(C(C)(C)C#N)c2)cc1Nc1ccc2ncn(C)c(=O)c2c1 [AZ628]; conditions: top dose 4 µM; top dose inferred
Experimental: as §1

AS601245 = compound: N#CC(c1ccnc(NCCc2cccnc2)n1)c1nc2ccccc2s1 [AS601245]; conditions: top dose 8 µM; top dose inferred
Experimental: as §1

Row | Cell Line | AUC (EX-527) | IC50 (EX-527) [µM] | AUC (AZD6244) | IC50 (AZD6244) [µM] | AUC (YM201636) | IC50 (YM201636) [µM] | AUC (AZ628) | IC50 (AZ628) [µM] | AUC (AS601245) | IC50 (AS601245) [µM]
1 | HCC2157 (breast, suspension) | 0.987 | > 20 | 0.983 | > 4 | 0.987 | > 5.12 | 0.944 | > 4 | 0.872 | > 8
2 | HCC2218 (breast, suspension) | 0.979 | > 20 | 0.981 | > 4 | 0.857 | > 5.12 | 0.983 | > 4 | 0.941 | > 8
3 | HCC2998 (large intestine, adherent) | 0.988 | > 20 | 0.34 | 0.0914 | 0.963 | > 5.12 | 0.504 | 0.257 | 0.744 | 2.44
4 | HD-MY-Z (Hodgkin lymphoma, adherent) | 0.981 | > 20 | 0.728 | 1.11 | 0.646 | 0.811 | 0.795 | 1.87 | 0.88 | > 8
5 | HDLM-2 (Hodgkin lymphoma, suspension) | 0.988 | > 20 | 0.976 | > 4 | 0.989 | > 5.12 | 0.964 | > 4 | 0.875 | 7.67
6 | HEL (acute myeloid leukaemia, semi-adherent) | 0.989 | > 20 | 0.989 | > 4 | 0.845 | 2.81 | 0.957 | > 4 | 0.848 | 4.49
7 | HOP-62 (lung adenocarcinoma, adherent) | 0.987 | > 20 | 0.777 | 1.6 | 0.837 | 3.42 | 0.877 | > 4 | 0.844 | 5.69
8 | HSC-39 (stomach, suspension) | 0.975 | > 20 | 0.972 | > 4 | 0.989 | > 5.12 | 0.951 | > 4 | 0.984 | > 8
9 | HT (B-cell lymphoma, suspension) | 0.979 | > 20 | 0.988 | > 4 | 0.8 | 2.25 | 0.967 | > 4 | 0.883 | 7.39
10 | HT-144 (melanoma, adherent) | 0.98 | > 20 | 0.482 | 0.222 | 0.916 | > 5.12 | 0.161 | 0.0196 | 0.797 | 4.27
11 | HUTU-80 (digestive system, adherent) | 0.981 | > 20 | 0.986 | > 4 | 0.889 | 4.09 | 0.731 |  | 0.781 | 2.74
12 | Hs-445 (Hodgkin lymphoma, suspension) | 0.988 | > 20 | 0.943 | > 4 | 0.929 | > 5.12 | 0.944 | > 4 | 0.872 | 6.63
13 | IMR-5 (neuroblastoma, adherent) | 0.99 | > 20 | 0.982 | > 4 | 0.847 | 2.91 | 0.986 | > 4 | 0.911 | > 8
14 | IST-MEL1 (melanoma, adherent) | 0.982 | > 20 | 0.85 | 3.96 | 0.865 | > 5.12 | 0.475 | 0.21 | 0.81 | 5.22
15 | IST-MES1 (mesothelioma, adherent) | 0.983 | > 20 | 0.982 | > 4 | 0.808 | 2.68 | 0.955 | > 4 | 0.856 | 6.52
16 | IST-SL1 (small cell lung carcinoma, semi-adherent) | 0.986 | > 20 | 0.955 | > 4 | 0.787 | 2.3 | 0.972 | > 4 | 0.933 | > 8
17 | JAR (urogenital system, adherent) | 0.983 | > 20 | 0.984 | > 4 | 0.954 | > 5.12 | 0.983 | > 4 | 0.988 | > 8
18 | JJN-3 (haematopoietic neoplasm, suspension) | 0.974 | > 20 | 0.962 | > 4 | 0.909 | 4.91 | 0.887 | 3.07 | 0.866 | 5.11
19 | JM1 (B-cell lymphoma, suspension) | 0.989 | > 20 | 0.97 | > 4 | 0.822 | 2.46 | 0.93 | > 4 | 0.871 | 5.76
20 | JSC-1 (B-cell lymphoma, suspension) | 0.979 | > 20 | 0.908 | > 4 | 0.766 | 1.87 | 0.633 | 0.578 | 0.874 | 7.61
21 | JURL-MK1 (chronic myeloid leukaemia, suspension) | 0.979 | > 20 | 0.746 | 1.26 | 0.904 | > 5.12 | 0.539 | 0.318 | 0.92 | > 8
22 | JVM-2 (lymphoid neoplasm, suspension) | 0.968 | > 20 | 0.906 | > 4 | 0.875 | > 5.12 | 0.906 | > 4 | 0.908 | > 8
23 | JVM-3 (lymphoid neoplasm, suspension) | 0.985 | > 20 | 0.939 | > 4 | 0.94 | > 5.12 | 0.987 | > 4 | 0.966 | > 8
24 | JiyoyeP-2003 (Burkitt lymphoma, suspension) | 0.991 | > 20 | 0.99 | > 4 | 0.923 | > 5.12 | 0.924 | > 4 | 0.903 | > 8
25 | K5 (thyroid, adherent) | 0.975 | > 20 | 0.244 | 0.0475 | 0.907 | > 5.12 | 0.396 | 0.131 | 0.878 | 7.52
